Laboratory results published in PMC12820563, “FoxP3 forms a head-to-head dimer in vivo and stabilizes its multimerization on adjacent microsatellites”.
The other results are listed elsewhere or left out.

Target: T1, MBP-FoxP1dN (Mus musculus, UniProt P58462 326-579)
T1 sequence: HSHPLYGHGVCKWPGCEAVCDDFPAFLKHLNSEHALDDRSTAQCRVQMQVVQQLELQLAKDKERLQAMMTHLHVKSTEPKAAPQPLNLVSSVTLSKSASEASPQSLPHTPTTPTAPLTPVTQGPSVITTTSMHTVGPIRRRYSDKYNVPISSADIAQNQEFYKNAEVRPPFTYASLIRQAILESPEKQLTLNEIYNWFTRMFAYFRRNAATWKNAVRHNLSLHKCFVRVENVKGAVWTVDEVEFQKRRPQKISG
Assay: PD-seq (MBP pull-down with sequencing); 20 mM Tris-HCl pH 7.5, 100 mM NaCl, 1.5 mM MgCl2, 0.4 uM protein, 0.1 uM dsDNA library, 30 min, room temperature, amylose pull-down; high values mean tight binding
Conditions: protein: recombinant; tags: His6-MBP; chain copies: 2; dsDNA, one strand shown
Procedure, shortened: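 His6-MBP-tagged mouse FoxP3 or FoxP1 fragment lacking the N-terminus, expressed in E. coli, was mixed at 0.4 µM with 0.1 µM Klenow-filled double-stranded degenerate DNA library. Incubation was 30 min at room temperature in Tris pH 7.5 buffer with NaCl and MgCl2. Complexes were caught on amylose resin and washed three times; DNA was released with proteinase K, PCR-barcoded and Illumina-sequenced. Binding is reads-per-million enrichment, pull-down over input, with replicates pooled.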

First: GATGATTGTTCTCCCAGCTGATGAATTCCGCGATTCGAGTAAACAAATTTTCCTAATCTTTCTGTTCAAGCGCCATCTAC
Second: GATGATTGTTCTCCCAGCTGATGAATTTGGACTATCGAGTAAACAAATTTTCCTAATCTTTCTGTTCAAGCGCCATCTAC
The binding signal of the first is lower: 0.764 RPM ratio (pull-down/input) for the first, 0.98 RPM ratio (pull-down/input) for the second.

Compared with “GATGATTGTTCTCCCAGCTGATGAATTATGAGTATCGAGTAAACAAATTTTCCTAATCTTTCTGTTCAAGCGCCATCTAC”, “GATGATTGTTCTCCCAGCTGATGAATTATCTCCCTCGAGTAAACAAATTTTCCTAATCTTTCTGTTCAAGCGCCATCTAC” is lower in binding signal: 1.16 RPM ratio (pull-down/input) for the first, 0.874 RPM ratio (pull-down/input) for the second.

First: GATGATTGTTCTCCCAGCTGATGAATTCTCGCACTCGAGTAAACAAATTTTCCTAATCTTTCTGTTCAAGCGCCATCTAC
Second: GATGATTGTTCTCCCAGCTGATGAATTTCCTGCTTCGAGTAAACAAATTTTCCTAATCTTTCTGTTCAAGCGCCATCTAC
The binding signal of the first is lower: 0.816 RPM ratio (pull-down/input) for the first, 0.853 RPM ratio (pull-down/input) for the second.

First: GATGATTGTTCTCCCAGCTGATGAATTTGTGTCCTCGAGTAAACAAATTTTCCTAATCTTTCTGTTCAAGCGCCATCTAC
Second: GATGATTGTTCTCCCAGCTGATGAATTGGAATGATCGAGTAAACAAATTTTCCTAATCTTTCTGTTCAAGCGCCATCTAC
The binding signal of the first is higher: 1.27 RPM ratio (pull-down/input) for the first, 0.901 RPM ratio (pull-down/input) for the second.

Going from “GATGATTGTTCTCCCAGCTGATGAATTAACTGGTTCGAGTAAACAAATTTTCCTAATCTTTCTGTTCAAGCGCCATCTAC” to “GATGATTGTTCTCCCAGCTGATGAATTGGCGGATTCGAGTAAACAAATTTTCCTAATCTTTCTGTTCAAGCGCCATCTAC”, the binding signal rises from 0.796 RPM ratio (pull-down/input) to 0.824 RPM ratio (pull-down/input).

Going from “GATGATTGTTCTCCCAGCTGATGAATTGTGGATCTCGAGTAAACAAATTTTCCTAATCTTTCTGTTCAAGCGCCATCTAC” to “GATGATTGTTCTCCCAGCTGATGAATTACGTGAGTCGAGTAAACAAATTTTCCTAATCTTTCTGTTCAAGCGCCATCTAC”, the binding signal rises from 0.946 RPM ratio (pull-down/input) to 0.995 RPM ratio (pull-down/input).

First: GATGATTGTTCTCCCAGCTGATGAATTCCTGTCTTCGAGTAAACAAATTTTCCTAATCTTTCTGTTCAAGCGCCATCTAC
Second: GATGATTGTTCTCCCAGCTGATGAATTTTAACCTTCGAGTAAACAAATTTTCCTAATCTTTCTGTTCAAGCGCCATCTAC
The binding signal of the first is lower: 0.886 RPM ratio (pull-down/input) for the first, 0.891 RPM ratio (pull-down/input) for the second.

Going from “GATGATTGTTCTCCCAGCTGATGAATTCATGAACTCGAGTAAACAAATTTTCCTAATCTTTCTGTTCAAGCGCCATCTAC” to “GATGATTGTTCTCCCAGCTGATGAATTTCCTGGATCGAGTAAACAAATTTTCCTAATCTTTCTGTTCAAGCGCCATCTAC”, the binding signal falls from 0.896 RPM ratio (pull-down/input) to 0.788 RPM ratio (pull-down/input).

Compared with “GATGATTGTTCTCCCAGCTGATGAATTAACTATATCGAGTAAACAAATTTTCCTAATCTTTCTGTTCAAGCGCCATCTAC”, “GATGATTGTTCTCCCAGCTGATGAATTAGACGGTTCGAGTAAACAAATTTTCCTAATCTTTCTGTTCAAGCGCCATCTAC” is lower in binding signal: 0.924 RPM ratio (pull-down/input) for the first, 0.9 RPM ratio (pull-down/input) for the second.
